According to paper doi:10.1101/2023.09.28.559893 (bioRxiv, 2023):

Target: T1, TRIAD3A_UR (UR fragment: amino acid 260-750) (human, UniProt Q9NWF9-2 260-750)
T1 sequence: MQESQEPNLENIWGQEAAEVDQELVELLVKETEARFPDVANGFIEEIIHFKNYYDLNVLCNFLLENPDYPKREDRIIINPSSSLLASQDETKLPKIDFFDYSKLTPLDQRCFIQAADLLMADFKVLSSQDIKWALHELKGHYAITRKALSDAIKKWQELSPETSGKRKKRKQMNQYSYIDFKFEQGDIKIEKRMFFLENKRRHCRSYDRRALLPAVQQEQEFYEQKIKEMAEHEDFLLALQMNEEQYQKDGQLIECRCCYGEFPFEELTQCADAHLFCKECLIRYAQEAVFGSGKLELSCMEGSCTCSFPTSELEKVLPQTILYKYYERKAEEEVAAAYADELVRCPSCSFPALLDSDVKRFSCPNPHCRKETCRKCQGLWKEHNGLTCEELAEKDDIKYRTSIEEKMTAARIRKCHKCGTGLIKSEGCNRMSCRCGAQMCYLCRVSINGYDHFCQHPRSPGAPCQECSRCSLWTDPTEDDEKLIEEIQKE
Experiment: pull-down

- binding result: binds
B1: recombinant human tau 0N4R (natural protein)
chain: not shown
